This is an account of results in PMC11995724, “Antibiotic target discovery by integrated phenotypic and activity-based profiling of electrophilic fragments” (Cell chemical biology, 2025).

Hit rate of the full screen: of about 3,200 compounds, about 110 (3.4%) showed an effect of 50% or more. The list shows a part of the results.

The assay concerns T1, V. cholerae SAD30.
T1 construct: SAD30
Set-up: species or system S. aureus MSSA476 (TSB) or V. cholerae SAD30 (LB); 384-well bacterial growth screen at 25 uM, OD600 relative to DMSO control. Conditions: relative growth, OD600, LB; 25 µM; inhibitor.
With `C=CC(=O)Nc1ccnc(OC2CCCCC2)c1` [2-A04, N-[2-(cyclohexyloxy)pyridin-4-yl]prop-2-enamide], the “% of control remaining” value came out at 110.422%.
Next, `C=CC(=O)N(Cc1ccc(=O)n(C)c1)C1CCCc2ccccc21` (stereo not drawn) [1-B17, N-[(1-methyl-6-oxo-1,6-dihydropyridin-3-yl)methyl]-N-(1,2,3,4-tetrahydronaphthalen-1-yl)prop-2-enamide]: 82.0628%; `COC(=O)c1cc(C(=O)CCl)c(C)o1` [10-G13, methyl 4-(2-chloroacetyl)-5-methylfuran-2-carboxylate]: 43.6392%.
Regarding `C=CC(=O)NCCCn1cnc2c1CCCC2` [3-K20, N-[3-(4,5,6,7-tetrahydro-1H-1,3-benzodiazol-1-yl)propyl]prop-2-enamide], the “% of control remaining” value turned out to be 94.3834%.
Next, `C=CC(=O)N1CCC(C(=O)N[C@@H]2C[C@H]2c2ccc(Cl)c(F)c2)CC1` [3-B14, N-[(1R,2S)-2-(4-chloro-3-fluorophenyl)cyclopropyl]-1-(prop-2-enoyl)piperidine-4-carboxamide]: 104.793%; `N#CC(=Cc1cnn(Cc2ccccc2)c1)C(=O)Nc1nccs1` [9-M03, 3-(1-benzyl-1H-pyrazol-4-yl)-2-cyano-N-(1,3-thiazol-2-yl)prop-2-enamide]: 94.5615%; `C=CC(=O)N(C)CC(=O)N1CCC(c2nc(-c3ccccc3)n[nH]2)CC1` [2-H20, N-methyl-N-{2-oxo-2-[4-(3-phenyl-1H-1,2,4-triazol-5-yl)piperidin-1-yl]ethyl}prop-2-enamide]: 93.747%.
Turning to `C=CC(=O)N(Cc1cccc2ccoc12)C1CCSCC1` [1-D04, N-[(1-benzofuran-7-yl)methyl]-N-(thian-4-yl)prop-2-enamide], the “% of control remaining” value was found to be 127.331%.
For the compound `O=C(CCl)Cc1cccc(F)c1F` [10-K17, 1-chloro-3-(2,3-difluorophenyl)propan-2-one], the “% of control remaining” value turned out to be 0.1559%.
With `CN(C)c1ccc(C=C(C#N)C(=O)NCc2ccco2)cc1` [9-D10, 2-cyano-3-[4-(dimethylamino)phenyl]-N-[(furan-2-yl)methyl]prop-2-enamide], the “% of control remaining” value worked out at 75.2549%.
As for `C=CC(=O)NCCn1nc(C)cc1C` [3-M13, N-[2-(3,5-dimethyl-1H-pyrazol-1-yl)ethyl]prop-2-enamide], the “% of control remaining” value is listed as 97.7357%.
With `C=CC(=O)N(C)c1ccccc1C(=O)NC` [2-O18, N-methyl-2-(N-methylprop-2-enamido)benzamide], the “% of control remaining” value is recorded as 90.6591%.
